B1: MD2642 (Fc fusion)
chain: EVQLVESGGGLVQPGGSLRLSCAVSISIFDIYAMDWYRQAPGKQRDLVATSFRDGSTNYADSVKGRFTISRDNAKNTLYLQMNSLKPEDTAVYLCHVSLYRDPLGVAGGMGVYWGKGALVTVSSGGGGSGGGGSEVQLVESGGGLVQAGGSLKLSCAASGRTYAMGWFRQAPGKEREFVAHINALGTRTYYSDSVKGRFTISRDNAKNTEYLEMNNLKPEDTAVYYCTAQGQWRAAPVAVAAEYEFWGQGTQVTVSS[gap - human IgG1 Fc]GGGGSGGGGSEVQLVESGGGLVQPGGSLRLSCAATGFTLENKAIGWFRQTPGSEREGVLCISKSGSWTYYTDSMRGRFTISRDNAENTVYLQMDSLKPEDTAVYYCATTTAGGGLCWDGTTFSRLASSWGQGTQVTVSSGGGGSGGGGSEVQLVESGGGLVQPGGSLKLSCAASGFTFSTSWMYWLRQAPGKGLEWVSVINTDGGTYYADSVKDRFTISRDNAKDTLYLQMSSLKSEDTAVYYCAKDWGGPEPTRGQGTQVTVSS
B2: MD3609 (Fc fusion)
chain: EVQLVESGGGLVQPGGSLRLSCAVSISIFDIYAMDWYRQAPGKQRDLVATSFRDGSTNYADSVKGRFTISRDNAKNTLYLQMNSLKPEDTAVYLCHVSLYRDPLGVAGGMGVYWGKGALVTVSSGGGGSGGGGSEVQLVESGGGLVQAGGSLKLSCAASGRTYAMGWFRQAPGKEREFVAHINALGTRTYYSDSVKGRFTISRDNAKNTEYLEMNNLKPEDTAVYYCTAQGQWRAAPVAVAAEYEFWGQGTQVTVSSGGGGSGGGGSEVQLVESGGGLVQPGGSLRLSCAATGFTLENKAIGWFRQTPGSEREGVLCISKSGSWTYYTDSMRGRFTISRDNAENTVYLQMDSLKPEDTAVYYCATTTAGGGLCWDGTTFSRLASSWGQGTQVTVSSGGGGSGGGGSEVQLVESGGGLVQPGGSLKLSCAASGFTFSTSWMYWLRQAPGKGLEWVSVINTDGGTYYADSVKDRFTISRDNAKDTLYLQMSSLKSEDTAVYYCAKDWGGPEPTRGQGTQVTVSSAAA[gap - human IgG1 Fc]
B3: MD2607 (Fc fusion)
chain: EVQLVESGGGLVQPGGSLRLSCAATGFTLENKAIGWFRQTPGSEREGVLCISKSGSWTYYTDSMRGRFTISRDNAENTVYLQMDSLKPEDTAVYYCATTTAGGGLCWDGTTFSRLASSWGQGTQVTVSSAAA[gap - human IgG1 Fc]
B4: MD2605 (Fc fusion)
chain: EVQLVESGGGLVQPGGSLRLSCAVSISIFDIYAMDWYRQAPGKQRDLVATSFRDGSTNYADSVKGRFTISRDNAKNTLYLQMNSLKPEDTAVYLCHVSLYRDPLGVAGGMGVYWGKGALVTVSSAAA[gap - human IgG1 Fc]

Key:
Assay in all cases: cell-based or functional assay
[1] = target: hemagglutinin (HA) of influenza A/WF/HK/MPA892/06 (H4) (influenza A virus)
[2] = target: hemagglutinin (HA) of influenza A/Fukui/45/04 (H3N2) (influenza A virus)
[3] = target: hemagglutinin (HA) of influenza A/New Caledonia/20/99 (H1N1) (influenza A virus)
[4] = target: hemagglutinin (HA) of influenza A/Eurasian Wigeon/MPH571/08 (H8N4) (influenza A virus)
[5] = target: hemagglutinin (HA) of influenza A/Brisbane/59/07 (H1N1) (influenza A virus)
[6] = target: hemagglutinin (HA) of influenza B/Malaysia/2506/04 (Victoria) (influenza B virus)
[7] = target: hemagglutinin (HA) of influenza B/Harbin/7/94 (Yamagata) (influenza B virus)
[8] = target: hemagglutinin (HA) of influenza A/Johannesburg/33/94 (H3N2) (influenza A virus)
[9] = target: hemagglutinin (HA) of influenza A/NIBRG/60 (A/mallard/Netherlands/12/00) (H7N3) (influenza A virus)
[10] = target: hemagglutinin (HA) of influenza A/California/07/09 (H1N1) (influenza A virus)
[11] = target: hemagglutinin (HA) of influenza A/Victoria/210/09 (H3N2) (influenza A virus)
[12] = target: hemagglutinin (HA) of influenza A/Vietnam/1194/04 (H5N1) (influenza A virus)
[13] = target: hemagglutinin (HA) of influenza A/Brisbane/10/07 (H3N2) (influenza A virus)
[14] = target: hemagglutinin (HA) of influenza A/PR8 H5N1 HK97 (H5N1) (influenza A virus)
[15] = target: hemagglutinin (HA) of influenza A/Anhui/1/13 (H7N9) (influenza A virus)
[16] = target: hemagglutinin (HA) of influenza A/Christchurch/16/10 (H1N1) (influenza A virus)
[17] = target: hemagglutinin (HA) of influenza A/Shanghai/2/13 (H7N9) (influenza A virus)
[18] = target: hemagglutinin (HA) of influenza A/Hiroshima/52/05 (H3N2) (influenza A virus)
[19] = target: hemagglutinin (HA) of influenza A/Wisconsin/67/05 (H3N2) (influenza A virus)
[20] = target: hemagglutinin (HA) of influenza B/Florida/04/06 (Yamagata) (influenza B virus)
[21] = target: hemagglutinin (HA) of influenza B/Massachusetts/02/12 (Yamagata) (influenza B virus)
[22] = target: hemagglutinin (HA) of influenza A/Panama/2007/99 (H3N2) (influenza A virus)
[23] = target: hemagglutinin (HA) of influenza A/Solomon Islands/3/2006 (IVR 145) (H1N1) (influenza A virus)
[24] = target: hemagglutinin (HA) of influenza A/Perth/16/09 (H3N2) (influenza A virus)
[25] = target: hemagglutinin (HA) of influenza A/Northern Pintail/MPC2085/07 (H11N9) (influenza A virus)
[26] = target: hemagglutinin (HA) of influenza virus H1N1 A/Puerto Rico/8/34-MA (influenza A virus)
[27] = target: hemagglutinin (HA) of influenza virus B/Florida/04/06 (Yamagata) (influenza B virus)
[28] = target: hemagglutinin (HA) of influenza virus H2N2 A/Guiyang/1/57 (influenza A virus)
[29] = target: hemagglutinin (HA) of influenza virus H2N2 A/WF/HK/MPU3156/05 (influenza A virus)
[30] = target: hemagglutinin (HA) of influenza virus H7N9 A/Anhui/1/13 (influenza A virus)
[31] = target: hemagglutinin (HA) of influenza virus H3N2 A/Wisconsin/67/05 (influenza A virus)
[32] = target: hemagglutinin (HA) of influenza virus H5N1 A/Vietnam/1194/04 (influenza A virus)
[33] = target: hemagglutinin (HA) of influenza virus H3N2 A/Brisbane/10/07 (influenza A virus)

Binder	Average neutralization titers [1] [nM]	Average neutralization titers [2] [nM]	Average neutralization titers [3] [nM]	Average neutralization titers [4] [nM]	Average neutralization titers [5] [nM]	Average neutralization titers [6] [nM]	Average neutralization titers [7] [nM]	Average neutralization titers [8] [nM]	Average neutralization titers [9] [nM]	Average neutralization titers [10] [nM]	Average neutralization titers [11] [nM]	Average neutralization titers [12] [nM]	Average neutralization titers [13] [nM]	Average neutralization titers [14] [nM]	Average neutralization titers [18] [nM]	Average neutralization titers [19] [nM]	Average neutralization titers [20] [nM]	Average neutralization titers [22] [nM]	Average neutralization titers [23] [nM]	Average neutralization titers [24] [nM]	further results
B1	5.2	21.9	6.3	7	2.7	3.5	1.1	16.2	14.2	3.6	9.7	7.5	13.5	4.7	16.2	12.5	1.8	21.9	4.8	11.1	Average neutralization titers [15]: 30.4 nM; Average neutralization titers [16]: 2.1 nM; Average neutralization titers [17]: 24.7 nM; Average neutralization titers [21]: 1 nM; Average neutralization titers [25]: 8.2 nM
B2	6.5	21.9	13	14	5.5	5.5	1.4	16.2	21.9	5.5	8.1	15.5	14.2	6.5	16.2	30.9	5.5	26	6.5	12.9	Average neutralization titers [25]: 27.3 nM
B3																					average neutralization titer [26]: 1260 nM; average neutralization titer [27]: 252 nM
B4																					average neutralization titer [28]: 23.7 nM; average neutralization titer [29]: 13.3 nM; average neutralization titer [30]: 190 nM; average neutralization titer [31]: 37.8 nM; average neutralization titer [32]: 8.4 nM; average neutralization titer [33]: 25.1 nM

From patent publication US20190359693A1
